According to the supplement of paper PMC10338343:
± gives the standard deviation. This is a selection; strong and weak results do not stand in their true shares.
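Also: 1 nM active piRISC with 0.1 nM target library at 33 °C single turnover.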

The sequences below were run on MIWI (PIWIL1) piRISC loaded with piRNA #1 (30 nt) (assay: pre-steady-state target cleavage rate (min^-1); MIWI and MILI are mouse PIWI proteins and EfPiwi is from a freshwater sponge; tags in brackets are library labels; higher = faster piRNA-guided slicing of the target). Details: guide: piRNA #1 5'p-UGAGGUAGUAGGUUGUAUAGUAUCCAGAGG; auxiliary factor: 500 nM mouse GTSF1.
Procedure, shortened: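 Active affinity-purified piRISC carrying one synthetic guide (1 nM) was mixed with a transcribed, DNA-blocked target RNA library […] in HEPES–potassium acetate buffer at 33 °C for 0–8 or 0–960 min, with or without 500 nM GTSF1 partner protein. Uncleaved targets were then sequenced and normalised to depth and to weakly complementary targets. Three trials were pooled, and k3 was capped at 0.0001 min^-1. A burst-and-steady-state fit was applied to obtain the pre-steady-state cleavage rate.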
GGAGACCUAUGUAUACAACCUACUACACUCA was tested, and the “pre-steady-state target cleavage rate” value was 0.132 ± 0.019. With GGAGACCUAUCUAUACAACCUUCUACCUGA the “pre-steady-state target cleavage rate” value was 0.0346 ± 0.0072. In the case of GGAGACCUAUCUAUACAUCCUUCUACCUCA, the “pre-steady-state target cleavage rate” value is reported as 0.0301 ± 0.0063. With GGACUGGAUCUAUACAACCUACUACCUCA the “pre-steady-state target cleavage rate” value was 1.69 ± 0.12. CCUCUGGAUACUAUACAACGUACUACGUCA was tested, and the “pre-steady-state target cleavage rate” value was 0.779 ± 0.079. For GGAGACGAUACAAUACAUCCUACUACCUCA, the “pre-steady-state target cleavage rate” value was 0.972 ± 0.075. For “CCUCUGGAUACUAUACAACCUACUAGGAGA [g6:g30:cont:t1A]”, the “pre-steady-state target cleavage rate” value was 0.0261 ± 0.0073. For GGAGACCUAUCUAUACUUCCUACUACCUCA, the “pre-steady-state target cleavage rate” value was 0.00405 ± 0.0035. GGAGACGAUACUAUACAACCUACUACCUGA was tested, and the “pre-steady-state target cleavage rate” value was 0.74 ± 0.087. GGAGACCUUAGUAUACAACCUACUACGUCA was tested, and the “pre-steady-state target cleavage rate” value was 0.162 ± 0.021. In the case of GCUCUGGAUACUAUACAACCUACUACCACA, the “pre-steady-state target cleavage rate” value is reported as 1.95 ± 0.13. With CCUCUGGUACUAUACAACCUACUACCUCA the “pre-steady-state target cleavage rate” value was 0.79 ± 0.042. GGACAGGAUACUAUACAACCAACUACCUCA was tested, and the “pre-steady-state target cleavage rate” value was 0.127 ± 0.011. In the case of GGAGACCAUUCUAUACAAGCUACUACCUCA, the “pre-steady-state target cleavage rate” value is reported as 0.688 ± 0.048. With CCACUGGAUACAAUACAACCUACUACCUCA the “pre-steady-state target cleavage rate” value was 1.85 ± 0.11. In the case of GGAGUGCAAACUAUACAACCUACUACCUCA, the “pre-steady-state target cleavage rate” value is reported as 1.04 ± 0.086. In the case of GGAGACCUUACUAAACAACCUUCUACCUCA, the “pre-steady-state target cleavage rate” value is reported as 0.127 ± 0.01. In the case of GGUCUGGAAACUAUACAACCUACAACCUCA, the “pre-steady-state target cleavage rate” value is reported as 0.272 ± 0.044. In the case of GCUCUGGAUACUAUACAUCCUACUACGUCA, the “pre-steady-state target cleavage rate” value is reported as 0.929 ± 0.066. GGAGACGAUACAAUACAACCAACUACCUCA was tested, and the “pre-steady-state target cleavage rate” value was 0.0918 ± 0.008. In the case of GGUCUGGUUACUAUACAUCCUACUACCUCA, the “pre-steady-state target cleavage rate” value is reported as 1.68 ± 0.1. In the case of GGAGACGAUACUAAACAACCUUCUACCUCA, the “pre-steady-state target cleavage rate” value is reported as 0.518 ± 0.029. In the case of GGUCUGGAUAGUAUACAACCUUCUACCUCA, the “pre-steady-state target cleavage rate” value is reported as 0.541 ± 0.032. In the case of GGAGACCUAUCUAUACAACCUACUACCUCCA, the “pre-steady-state target cleavage rate” value is reported as 0.741 ± 0.052. In the case of GGUCUGGAUACUAUACAACCUUCUACGUCA, the “pre-steady-state target cleavage rate” value is reported as 0.16 ± 0.026. In the case of GGAGUGGUUACUAUAGAACCUACUACCUCA, the “pre-steady-state target cleavage rate” value is reported as 1.24 ± 0.08. For CCGUCUGGAUACUAUACAACCUACUACCUCA, the “pre-steady-state target cleavage rate” value was 1.86 ± 0.1. For GGAGAGGAUUCUAUACAACGUACUACCUCA, the “pre-steady-state target cleavage rate” value was 0.559 ± 0.029. For GGAGACCAUAGUAUACAACCUACUACCUGA, the “pre-steady-state target cleavage rate” value was 0.325 ± 0.037. In the case of GGAGACCUAUGAUUACAAGCAACUACCUCA, the “pre-steady-state target cleavage rate” value is reported as less than 0.0001. With GGUCAGGUUACUAUACAACCUACUACCUCA the “pre-steady-state target cleavage rate” value was 1.8 ± 0.11. “GGAGACGAUACUAUACAACCUACUACCUCU [g2:g24:cont:t1U]” was tested, and the “pre-steady-state target cleavage rate” value was 1.84 ± 0.12. For GCUCUGGAUACUAUACAACGUACAACCUCA, the “pre-steady-state target cleavage rate” value was 0.971 ± 0.086. With GGAGACCAUACUAUACAACGUACUACCUGA the “pre-steady-state target cleavage rate” value was 0.334 ± 0.041. For GCUCUGGAUUGUAUACAACCUACUACCUCA, the “pre-steady-state target cleavage rate” value was 0.846 ± 0.065. With GGAGACCAUACUAAUCAACCUACUACCUCA the “pre-steady-state target cleavage rate” value was 0.458 ± 0.067. For GCUCUGGGAUACUAUACAACCUACUACCUCA, the “pre-steady-state target cleavage rate” value was 1.89 ± 0.096. In the case of GGACUGGAAACUAUACAACCUAGUACCUCA, the “pre-steady-state target cleavage rate” value is reported as 0.393 ± 0.064. With GGAGAGGAUACUAUACAACCUUCUACCACA the “pre-steady-state target cleavage rate” value was 0.219 ± 0.026. In the case of CCUCUGGAUUCUAUACAACCUACUAGCUCA, the “pre-steady-state target cleavage rate” value is reported as 0.43 ± 0.052.
